Data taken from the supplement of paper PMC3334620.
Whole data set: some 33,000 sequences, median “E-score (-0.5 to 0.5)” near -0.021, cut for the highest 2% near 0.32. This is one part of the list.

These sequences were tested against T1, Zap1 (UniProt P47043) (assay: PBM E-score (8-mer binding enrichment) (E-score (-0.5 to 0.5)); higher = stronger / more preferred TF binding; most listed sequences are background and not binding sites). Settings: protein concentration: 200 nM; construct: GST-full length.
T1 sequence: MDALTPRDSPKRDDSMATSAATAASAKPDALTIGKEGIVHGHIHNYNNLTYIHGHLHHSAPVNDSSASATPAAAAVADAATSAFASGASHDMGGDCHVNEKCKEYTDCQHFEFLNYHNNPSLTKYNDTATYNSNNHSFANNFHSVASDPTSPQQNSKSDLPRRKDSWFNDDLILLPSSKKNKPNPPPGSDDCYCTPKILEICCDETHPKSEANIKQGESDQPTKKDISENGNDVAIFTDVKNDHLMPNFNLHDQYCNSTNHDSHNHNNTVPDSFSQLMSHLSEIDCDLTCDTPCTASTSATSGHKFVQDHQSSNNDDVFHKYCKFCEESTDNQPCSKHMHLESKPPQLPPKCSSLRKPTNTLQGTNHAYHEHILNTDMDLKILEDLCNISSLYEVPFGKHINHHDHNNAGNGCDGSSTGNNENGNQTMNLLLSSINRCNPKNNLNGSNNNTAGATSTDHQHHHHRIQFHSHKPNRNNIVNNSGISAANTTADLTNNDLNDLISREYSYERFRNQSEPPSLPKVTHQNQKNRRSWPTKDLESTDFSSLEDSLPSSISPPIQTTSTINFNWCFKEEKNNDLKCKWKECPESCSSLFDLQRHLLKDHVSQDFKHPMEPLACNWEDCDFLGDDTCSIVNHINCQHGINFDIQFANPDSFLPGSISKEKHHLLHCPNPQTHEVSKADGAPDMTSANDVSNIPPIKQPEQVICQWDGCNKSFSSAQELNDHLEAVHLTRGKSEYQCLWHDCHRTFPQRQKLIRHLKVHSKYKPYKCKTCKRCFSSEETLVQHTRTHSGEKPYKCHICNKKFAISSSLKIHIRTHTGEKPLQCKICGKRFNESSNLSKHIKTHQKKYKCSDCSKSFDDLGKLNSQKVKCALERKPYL
In short: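 Bound GST-tagged yeast transcription factors, applied at about 100-200 nM to double-stranded universal all-10-mer Agilent arrays, were detected with fluorescent anti-GST. Scans were normalised with masliner. A modified Wilcoxon-Mann-Whitney statistic, the E-score, was assigned to each ungapped eight-base word pooled with its reverse complement by the Universal PBM Analysis Suite.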

Sequence | PBM E-score
GGACCCAA | -0.0434
TAACCGTA | 0.31
ATCCAGGG | -0.0673
CTGCCTAC | -0.0582
CGTCGCCA | -0.167
AGTCCGGG | 0.00147
GCCAGCTA | -0.0851
GGCCGGAC | -0.149
CGGGTGAA | 0.118
CCCGCGCG | 0.0433
GAGAGAAA | -0.059
GACTTTGC | -0.2
AGTATCTC | -0.0776
AAAACATA | 0.0671
GACGGATC | -0.244
AATACGTG | -0.148
ATTGATTG | 0.0592
GCTTTAAC | 0.186
ATAAATTG | 0.288
CGTGAACG | -0.139
CCATTCCC | -0.258
ACGCTATG | -0.2
CTAGGATA | 0.0587
CGTTCACC | -0.136
AAAACGTA | 0.0762

Sequence | PBM E-score
GCGATCAC | -0.0868
AAAAATAT | 0.259
CCAACCTC | 0.0926
GGCTCAAA | -0.176
ACTCGCCC | -0.221
AAGAGCTA | -0.0268
CTTGGCGA | -0.223
CAAGGATG | -0.208
AGACCAAC | 0.038
CATAGGCC | 0.054
GTTGCAAC | 0.241
CTACATAA | -0.0843
CTAAAGTC | -0.179
TATAACCA | 0.45
ACTATTAC | 0.0281
CCTGGAGC | -0.167
AATCTTGC | 0.0897
TAAGCGAA | -0.0964
ACATTTGA | 0.0301
ACGGCCGG | 0.0492
TGACATCA | -0.0931
ACACGTTC | -0.252
AGCCATTA | 0.126
GTCAGCAA | -0.0146
ACCATCGA | -0.0155

Sequence | PBM E-score
AAGAAACC | 0.142
TAATTAGA | 0.147
AATGCCGG | -0.095
ATCAGCAA | 0.00697
AAAGACCC | 0.264
ATGCTTGA | 0.0482
ATGCGCGA | -0.117
TCGATCCA | -0.0992
ATCACAAG | 0.0907
ACTGGAGA | -0.271
AGGTTTAC | 0.145
AGAGGACT | -0.252
GGGTATCA | 0.168
ATCCGATA | -0.0474
AAGTACAA | 0.0203
CACGACAA | -0.104
CTCCCCTC | -0.158
CTGAGAAA | -0.0449
CTCTTTTC | -0.109
GACGTGTA | -0.237
AACACGAA | 0.143
AAGATGCG | -0.058
CTCCCGGA | -0.163
GAAGGCTA | -0.181
CTATGAAC | -0.0327

Sequence | PBM E-score
GCTGAAAA | 0.163
AACACCAC | 0.0741
AGTAGTCA | -0.276
CGGATCCA | 0.00476
GAGTGTCC | 0.0649
AATAACCT | 0.454
ACATTCAA | 0.00989
AGGCATAC | -0.151
ACGTCACG | -0.147
CGGAATGC | -0.136
AATGGCCC | 0.0145
AGCTTACC | -0.0573
GAGGTGAC | 0.308
CCATCATA | -0.163
AAAGCAGT | 0.209
GAGACAAC | -0.0115
ACTCAGAA | 0.138
AGGTTAAT | 0.315
CAGACCTG | -0.119
CTTATCTC | 0.0241
AACGAGGG | -0.12
AAGGTGCG | -0.174
GCTGTACC | 0.0296
CCGGGACA | 0.00573
AGGATTAG | -0.0739

Sequence | PBM E-score
ACTCTCTG | -0.0657
ATTTGTTC | 0.214
CGCACGCC | -0.0515
GGTCGTAA | 0.224
GGCCCGAC | -0.0703
AACTCTTA | 0.0943
ATCGAGGA | 0.0204
CGCACCGC | 0.0659
ATGTATTA | -0.0657
GACATCGA | -0.116
GTTACGGA | 0.213
AAGCTACC | 0.183
TACTCGCA | 0.139
ACACTCAA | 0.139
ACCTGCCC | 0.0678
AATGCCAA | 0.101
AAACAAGC | -0.0864
AACGGTCC | -0.114
AGCACCTG | -0.172
GCTATACC | 0.0485
CGCTCACC | -0.0494
CGACTGCA | -0.0386
AACCGACT | -0.201
AACAAACC | 0.102
AGTGACTA | 0.0436

Sequence | PBM E-score
ACAGATGC | -0.171
GCAAAAAC | 0.136
AGGCCATG | 0.128
ACCTATAG | 0.3
CTCAAGAC | -0.0417
TCAGTAAA | 0.155
CCTCATAC | 0.0122
CGTCCCAA | -0.0759
GTTAACTA | 0.263
CGCCGCGA | 0.0914
CTCACCCC | -0.015
CATCTCCC | -0.145
ATGGCCAC | 0.185
TAAGAGGA | -0.0917
ATGAAAAT | 0.156
AAAATTAC | 0.201
CAGTTCAG | 0.0166
AAGGCGAG | -0.0765
GTTGAAAA | 0.235
CCGTCTAA | 0.00658
CTGTAAGA | 0.0201
ATAAACAT | -0.0337
GAATTGGC | -0.197
GTATGCAA | 0.0515
CAATCCAC | -0.0351

Sequence | PBM E-score
TAAGCTGA | 0.0318
ACCGTGTA | 0.146
AACCGGTA | 0.0841
TAACCTAA | 0.399
CTCACCAC | -0.18
CTGAAGAA | -0.163
TCATATAA | 0.195
GTACATCA | 0.0732
TAAATTCA | -0.1
CCACCAGA | -0.00544
AGCTGCCT | -0.241
ATCGAATA | -0.122
GGGAGAGA | -0.251
CTCTAGAA | -0.0288
CCTTGGGC | 0.0263
AGCTTTAG | -0.191
GGGCACAA | 0.088
ACGGTCCG | -0.197
GTCGAAGA | -0.118
CGTAGACG | -0.328
CGACGTAC | -0.187
AACAACTC | 0.00164
CGCCCTAC | -0.0875
GCGTGTAA | 0.0353
ACTAATTG | 0.153

Sequence | PBM E-score
CCCATTAG | -0.168
ATATGAGA | 0.0525
GAACGTGC | -0.186
ACGTCGAG | -0.29
GAGAGTGC | -0.159
CGTGCAAA | 0.0295
GGCAAACA | 0.0667
CCAGATCC | -0.277
ACGAAGAG | 0.0592
AGAGCTAA | -0.111
AAGGAGAA | 0.0182
ATAGTTGA | 0.0436
ATACTCTG | 0.0448
CCGGATGC | -0.147
ACCCAACA | 0.205
CTTGATTC | 0.0208
ATCTAATC | -0.0733
ACAGAAGG | 9e-05
CTTGAGTA | -0.113
CTAGTAAG | 0.0764
ATTTATAA | 0.201
ACGCTACT | -0.219
CAGGCAGC | -0.213
AGATCATC | -0.103
CGGCACAC | -0.0591

Sequence | PBM E-score
ACAGCCTG | -0.162
CATGATGG | -0.0569
GAAGCAGC | -0.157
AGGTAGCC | 0.047
CATCGGCC | -0.311
CATATTGC | -0.169
AAGTAGTG | -0.00288
ATTGTTGA | 0.057
ATAACACA | 0.109
ATGCAAGC | -0.0865
GGTAGCAA | 0.0702
AGTTAGAC | 0.00548
ATAGATCA | 0.129
AGTCAGAA | -0.0982
CTGGCAAC | -0.0929
TATCTAGA | 0.151
ACGGCACA | -0.00775
AACGGACT | -0.166
ACATCCAA | -0.00617
